Assay results from the supplement of paper PMC7266297.
Where a name gives a salt, the structure may show the parent alone. Some of the results follow. Single values are uncertain, as repeats are few or missing.

Tests used:
[1] = test system: KB-3-1; assay: growth inhibition relative to DMSO control (SRB); cervical cancer cells: KB-3-1 is the parent and KB-V1 overexpresses MDR1; SRB is the sulforhodamine B stain; higher = more growth inhibition; conditions: 1 µM; 72 h
[2] = test system: KB-V1; assay: as above; conditions: 1 µM; 72 h
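Note: Read-out is SRB optical density at 490 nm, with the control being wells given 0.5% DMSO vehicle, and compound added one day after cells were plated.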

| Compound | growth inhibition [1] [%] | growth inhibition [2] [%] |
| --- | --- | --- |
| CC(=O)Oc1cc2c(s1)CCN(C(C(=O)C1CC1)c1ccccc1F)C2 (stereo not drawn) [Prasugrel] | 43.4 | 34.6 |
| CCC[C@H](NC(=O)/C(C#N)=C/c1cccc(Br)n1)c1ccccc1 [Degrasyn (WP1130)] | < 0 | 6.54 |
| COc1ccc(C(=O)Nc2sc3c(c2C(N)=O)CCCC3)cc1OC | 42.2 | 3.09 |
| C=C[C@@]1(C)CC(=O)[C@]2(O)[C@@]3(C)[C@@H](O)CCC(C)(C)[C@@H]3[C@H](O)[C@H](OC(C)=O)[C@@]2(C)O1 [Forskolin] | 26 | 10.8 |
| COc1c(C)cnc(Cn2cnc3c(Cl)nc(N)nc32)c1C | 88.9 | 74 |
| Cc1c(C(=O)Nc2ccc(N3C[C@@H](C)O[C@@H](C)C3)nc2)cccc1-c1ccc(OC(F)(F)F)cc1 [LDE225 (NVP-LDE225,Erismodegib)] | < 0 | 17.8 |
| CC(C)N(CC[C@H](c1ccccc1)c1cc(CO)ccc1O)C(C)C | < 0 | 3.12 |
| OC(CN1CCN(c2cccc(Cl)c2)CC1)C(c1ccccc1)c1ccccc1 (stereo not drawn) | < 0 | 1.56 |
| CC[C@H](C)C(=O)O[C@H]1C[C@@H](C)C=C2C=C[C@H](C)[C@H](CC[C@@H]3C[C@@H](O)CC(=O)O3)[C@H]21 [Lovastatin] | 20.6 | 22.9 |
| COc1c(C)c2c(c(O)c1C/C=C(\C)CCC(=O)OCCN1CCOCC1)C(=O)OC2 [Mycophenolate Mofetil] | 48.5 | 46.6 |
| CC[C@H](C)C(=O)O[C@H]1C[C@H](O)C=C2C=C[C@H](C)[C@H](CC[C@@H](O)C[C@@H](O)CC(=O)O)[C@H]21 [Pravastatin sodium] | 7.3 | 8.05 |
| COc1ccc2[nH]c([S@@+]([O-])Cc3ncc(C)c(OC)c3C)nc2c1 [Esomeprazole Sodium] | < 0 | 25.2 |
| Cc1[nH]c2ccccc2c1CCNCc1ccc(/C=C/C(=O)NO)cc1 [Panobinostat (LBH589)] | 94.9 | 99.4 |
| COc1ccc2c(Oc3ccc(NC(=O)c4c(C)n(CC(C)(C)O)n(-c5ccccc5)c4=O)nc3)ccnc2c1 | < 0 | 1.56 |
| C=CCc1cccc(/C=N/NC(=O)CN2CCN(Cc3ccccc3)CC2)c1O | < 0 | < 0 |
| NC(CO)C(=O)NNCc1ccc(O)c(O)c1O (stereo not drawn) [Benserazide HCl] | < 0 | 33.3 |
| C[C@]1(c2nc3c(C(N)=O)cccc3[nH]2)CCCN1 [Veliparib (ABT-888)] | 44.6 | 32.5 |
| CC(NCCc1ccc(O)cc1)C(O)c1ccc(O)cc1 (stereo not drawn) [Ritodrine HCl] | 29.6 | 11.7 |
| CC(C)(C)C(=O)OCOP(=O)(COCCn1cnc2c(N)ncnc21)OCOC(=O)C(C)(C)C [Adefovir Dipivoxil] | 53.4 | 24.5 |
